Results: article PMC6919601, “Identification of Plasmodium dipeptidyl aminopeptidase allosteric inhibitors by high throughput screening” (PLoS ONE, 2019)
The whole screen tested about 110,000 compounds, of which about 230 (0.21%) showed an effect of 50% or more. Some of the results follow.

target: DPAP1 (Plasmodium falciparum, UniProt Q8IIJ9); test: primary screen, percent inhibition; read by cleavage of a fluorogenic dipeptide substrate; higher = more effect of the substance; design: species or system P. falciparum D10 trophozoite lysates; single well
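Also: 30 min substrate incubation versus DMSO and 10 µM JCP410 controls.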

Chain of DPAP1 (Q8IIJ9 whole entry, looked up): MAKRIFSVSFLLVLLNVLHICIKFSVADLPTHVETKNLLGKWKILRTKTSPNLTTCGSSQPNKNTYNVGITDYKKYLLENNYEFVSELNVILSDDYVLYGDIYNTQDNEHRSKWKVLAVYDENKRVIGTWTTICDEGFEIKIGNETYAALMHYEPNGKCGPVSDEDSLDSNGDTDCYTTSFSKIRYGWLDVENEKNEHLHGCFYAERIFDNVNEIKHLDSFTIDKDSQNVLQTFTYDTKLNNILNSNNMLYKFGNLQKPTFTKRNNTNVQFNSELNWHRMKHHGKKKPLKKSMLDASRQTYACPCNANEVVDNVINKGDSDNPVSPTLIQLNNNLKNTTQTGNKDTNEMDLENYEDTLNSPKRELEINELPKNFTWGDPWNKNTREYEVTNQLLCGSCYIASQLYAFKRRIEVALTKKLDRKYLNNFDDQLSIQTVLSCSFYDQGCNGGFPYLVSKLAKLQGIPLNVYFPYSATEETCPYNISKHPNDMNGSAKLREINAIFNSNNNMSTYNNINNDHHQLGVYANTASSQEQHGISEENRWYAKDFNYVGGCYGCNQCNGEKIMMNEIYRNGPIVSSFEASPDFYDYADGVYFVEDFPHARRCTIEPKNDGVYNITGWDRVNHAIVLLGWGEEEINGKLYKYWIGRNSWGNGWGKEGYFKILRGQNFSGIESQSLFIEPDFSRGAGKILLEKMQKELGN

Row | SMILES | % Inhibition @ 10 uM
1 | Cc1cccc2cc(C(=O)CS(=O)(=O)c3ccc(C(C)(C)C)cc3)c(=O)oc12 | 0.775%
2 | CCN(CC)C(=O)Cn1cc(SCC(N)=O)c2ccccc21 | -5.23%
3 | O=C(O)COc1cccc(NC(=O)c2ccccc2)c1 | -1.02%
4 | CS(=O)(=O)n1nc(-c2cccnc2)nc1NCc1cccs1 | -4.98%
5 | S=C1NCN(CCc2ccccc2)CN1 | -7.56%
6 | C=CCNC(=S)NC(c1ccccc1)(c1ccccc1)c1ccccc1 | 1.29%
7 | CC1CCc2c(sc3nnn(Cc4ccc(C(=O)OC(C)C)cc4)c(=O)c23)C1 (stereo not drawn) | -4.85%
8 | CCN(CC)CCSc1nc2ccccc2[nH]1 | -3.77%
9 | COc1ccc(-c2noc(CN(C(=O)c3ccccc3)C(C)C)n2)cc1 | 0.809%
10 | Cc1ccc(-c2nnn(CC(=O)Nc3sc4c(c3C#N)CCC4)n2)cc1 | -1.85%
11 | CC[C@H](NC(=O)[C@H](Cc1nccs1)/N=C(\C)NS(=O)(=O)c1ccccc1)C(=O)c1nc2ccccc2o1 | -6.56%
12 | COc1cc(CN(C(=O)c2cccc(C)c2)C2CCS(=O)(=O)C2)cc(OC)c1OC (stereo not drawn) | -5.08%
13 | CC/N=C1/SC(CC(=O)Nc2ccccc2C(F)(F)F)C(=O)N1CC (stereo not drawn) | -5.46%
14 | Cc1ccsc1CN1CCN(CCO)CC1 | -0.856%
15 | CSCCOC(=O)C1=C(C)NC(=O)CC1c1ccccc1C (stereo not drawn) | -6.23%
16 | CCCS(=O)(=O)N1CCC(C(=O)NCCN(C)Cc2ccccc2)CC1 | 4.81%
17 | COc1ccccc1-n1cnc2sc3c(c2c1=O)CCCC3 | 1.96%
18 | Fc1ccc(-c2nnc3sc(-c4cccnc4)nn23)cc1 | 2.89%
19 | COc1ccc(C(=O)NCCc2c[nH]c3ccccc23)cc1 | -1.76%
20 | O=C(Nc1ccc(S(=O)(=O)N2CCCCCC2)cc1)c1ccccc1Cl | -0.69%
21 | CCCCN(CC)C(=O)Cn1nc(CC)n2c(cc3occc32)c1=O | 3%
22 | Cc1ccc(C2CC(C(F)(F)F)n3nc(C(N)=O)cc3N2)cc1 (stereo not drawn) | -2.8%
23 | Cc1ccc(S(=O)(=O)CCN2CCC(O)(c3ccccc3)CC2)cc1 | 0.778%
24 | Cc1ccc2nc(NC(=O)CN(C)S(=O)(=O)c3cccc4nsnc34)sc2c1 | -1.43%
25 | Cc1ccc(-n2nc(C)c3c2OC(N)=C(C#N)C3c2ccc3c(c2Cl)OCO3)cc1 (stereo not drawn) | -5.48%
26 | COc1ccc(N(CC(=O)Nc2cc(C)cc(C)c2)S(C)(=O)=O)c(OC)c1 | 0.189%

Row | SMILES | % Inhibition @ 10 uM
27 | CC1(C)Cc2nc3ccccc3c(NCc3ccc(Cl)cc3)c2C(O)C1 (stereo not drawn) | -5.47%
28 | O=C(c1cc2ccccc2oc1=O)N1CCc2ccccc21 | 0.219%
29 | CCc1ccccc1N(CC(=O)NC)S(=O)(=O)c1ccc(C)cc1 | -5.19%
30 | O=C(C1CC(c2ccc(F)cc2)=NO1)N1CCC(Cc2ccccc2)CC1 (stereo not drawn) | 2.85%
31 | Cc1ccc(CNC(=O)c2ccc(CS(=O)c3ccccc3C)o2)cc1 (stereo not drawn) | -1.28%
32 | CC(NC(=O)COc1ccc(Cl)cc1Cl)c1ccccc1 (stereo not drawn) | 2.62%
33 | O=C(NCCc1ccccc1)C1CCCN(S(=O)(=O)N2CCC3(CC2)OCCO3)C1 (stereo not drawn) | -2.56%
34 | CC1CCN(S(=O)(=O)c2ccc(NC(=O)C(C)Oc3ccccc3)cc2)CC1 (stereo not drawn) | 0.13%
35 | CCCN1C(=O)/C(=C/c2cc(C)n(C)c2C)S/C1=N/c1ccc(OC)cc1 | 4.11%
36 | CCOC(=O)c1c(-c2ccc([N+](=O)[O-])cc2)nc2ccc3ccccc3c2c1C | 4.12%
37 | OCC1CCCCN1Cc1ccccc1Br (stereo not drawn) | -6.12%
38 | CC(C)NCC(O)Cn1c2c(c3ccccc31)CCc1c-2cnn1-c1ccccc1 (stereo not drawn) | 1.7%
39 | CCOC(=O)c1cc(S(=O)(=O)N(C)C2CCCC(C)C2C)cn1C (stereo not drawn) | -1.06%
40 | O=C(NC12CCCC1C1CCC2C1)NC12CCCC1C1CCC2C1 (stereo not drawn) | -0.712%
41 | O=C(COc1ccccc1)Nc1ccc2ccccc2c1 | -1.17%
42 | COc1ccc(CNC(=O)CN(c2ccccc2Cl)S(=O)(=O)c2ccc(C)cc2)cc1 | -4.31%
43 | CCCCOC(=O)Nc1ccc(C(C)C)cc1 | 4.57%
44 | Cc1ccc(C2SCC(=O)Nc3c2c(O)nn3C2CCCCC2)cc1 (stereo not drawn) | -7.86%
45 | COC(=O)c1c(NC(=O)c2ccc3c(c2)CC(c2ccccc2)OC3=O)sc2c1CCC2 (stereo not drawn) | 5.35%
46 | O=C(OCc1cccc(COC(=O)c2ccc(Cl)cc2)n1)c1ccc(Cl)cc1 | 4.93%
47 | C=CCn1c(SCC(=O)Nc2ccccc2)nc2sc(CC)cc2c1=O | 3.46%
48 | COc1ccc(CNc2nc3ccccc3c3nc(-c4ccncc4)nn23)cc1 | -0.692%
49 | CCC(CC)C1C(C#N)=C(N)Oc2[nH]nc(C)c21 (stereo not drawn) | -1.98%
50 | O=C(CCN1C(=O)C2C3C=CC(C3)C2C1=O)N(CCc1ccccc1)Cc1ccccc1 (stereo not drawn) | 1.26%
51 | NC1=NC(=O)CC(C(=O)NCc2ccccc2)S1 (stereo not drawn) | -6.6%
